# According to the supplement of paper PMC8728848:
# This is one part of the list.
# B1: Threefoil (Haloarcula marismortui) (protein)
# chain: GSSHHHHHHHHHHSSGLVPRGSHMGDGYYKLVARHSGKALDVENASTSDGANVIQYSYSGGDNQQWRLVDLGDGYYKLVARHSGKALDVENASTSDGANVIQYSYSGGDNQQWRLVDLGDGYYKLVARHSGKALDVENASTSDGANVIQYSYSGGDNQQWRLVDL
# Key:
# Experiment in all cases: glycan array binding signal (z-score within array); higher = stronger binding
# Settings in all cases: glycan notation: IUPAC condensed, linker removed
# [1] = target: Gal(b1-3)GlcNAc(b1-2)Man(a1-3)[Gal(b1-3)GlcNAc(b1-2)Man(a1-6)]Man(b1-4)GlcNAc(b1-4)[Fuc(a1-6)]GlcNAc
# Procedure, shortened: (§1)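 The binding signal is a Z-score computed within each array and averaged over linkers. Arrays of the same protein sequence at different concentrations or buffers were also averaged together. Data originate from 3228 arrays in the Consortium for Functional Glycomics database, kept only where the protein sequence was available.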
# [2] = target: Gal(b1-3)GlcNAc(b1-2)Man(a1-3)[GlcNAc(b1-4)][Gal(b1-3)GlcNAc(b1-2)Man(a1-6)]Man(b1-4)GlcNAc(b1-4)GlcNAc
# Procedure, shortened: as §1
# [3] = target: Gal(b1-3)GlcNAc(b1-2)[Gal(b1-3)GlcNAc(b1-6)]Man(a1-6)[Gal(b1-3)GlcNAc(b1-2)Man(a1-3)]Man(b1-4)GlcNAc(b1-4)GlcNAc
# Procedure, shortened: as §1
# [4] = target: Gal(b1-3)GlcNAc(b1-3)Gal(b1-3)GlcNAc
# Procedure, shortened: as §1
# [5] = target: Gal(b1-3)GlcNAc(b1-3)Gal(b1-4)Glc
# Procedure, shortened: as §1
# [6] = target: Gal(b1-3)GlcNAc(b1-3)Gal(b1-4)GlcNAc
# Procedure, shortened: as §1
# [7] = target: Gal(b1-3)GlcNAc(b1-3)Gal(b1-4)GlcNAc(b1-2)Man(a1-3)[Gal(b1-3)GlcNAc(b1-3)Gal(b1-4)GlcNAc(b1-2)Man(a1-6)]Man(b1-4)GlcNAc(b1-4)GlcNAc
# Procedure, shortened: as §1
# [8] = target: Gal(b1-3)GlcNAc(b1-3)Gal(b1-4)GlcNAc(b1-2)[Gal(b1-3)GlcNAc(b1-3)Gal(b1-4)GlcNAc(b1-6)]Man(a1-6)[Gal(b1-3)GlcNAc(b1-3)Gal(b1-4)GlcNAc(b1-2)Man(a1-3)]Man(b1-4)GlcNAc(b1-4)[Fuc(a1-6)]GlcNAc
# Procedure, shortened: as §1
# [9] = target: Gal(b1-3)GlcNAc(b1-3)Gal(b1-4)GlcNAc(b1-3)Gal(b1-4)GlcNAc(b1-2)[Gal(b1-3)GlcNAc(b1-3)Gal(b1-4)GlcNAc(b1-3)Gal(b1-4)GlcNAc(b1-6)]Man(a1-6)[Gal(b1-3)GlcNAc(b1-3)Gal(b1-4)GlcNAc(b1-3)Gal(b1-4)GlcNAc(b1-2)Man(a1-3)]Man(b1-4)GlcNAc(b1-4)[Fuc(a1-6)]GlcNAc
# Procedure, shortened: as §1
# [10] = target: Gal(b1-3)GlcNAc(b1-3)Gal(b1-4)GlcNAc(b1-6)[Gal(b1-3)GlcNAc(b1-3)]Gal(b1-4)Glc
# Procedure, shortened: as §1
# [11] = target: Gal(b1-3)GlcNAc(b1-3)Gal(b1-4)[Fuc(a1-3)]GlcNAc
# Procedure, shortened: as §1
# [12] = target: Gal(b1-3)GlcNAc(b1-3)Gal(b1-4)[Fuc(a1-3)]GlcNAc(b1-6)[Gal(b1-3)GlcNAc(b1-3)]Gal(b1-4)Glc
# Procedure, shortened: as §1
# [13] = target: Gal(b1-3)GlcNAc(b1-3)GalNAc
# Procedure, shortened: as §1
# [14] = target: Gal(b1-3)GlcNAc(b1-6)Gal(b1-4)GlcNAc
# Procedure, shortened: as §1
# [15] = target: Gal(b1-3)GlcNAc(b1-6)GalNAc
# Procedure, shortened: as §1
# [16] = target: Gal(b1-3)GlcNAc(b1-6)[Gal(b1-3)]GalNAc
# Procedure, shortened: as §1
# Gal(b1-3)GlcNAc6S = target: Gal(b1-3)GlcNAc6S
# Procedure, shortened: as §1
# [17] = target: Gal(b1-3)[Fuc(a1-4)]GlcNAc
# Procedure, shortened: as §1
# [18] = target: Gal(b1-3)[Fuc(a1-4)]GlcNAc(b1-2)Man
# Procedure, shortened: as §1
# [19] = target: Gal(b1-3)[Fuc(a1-4)]GlcNAc(b1-2)Man(a1-3)[Gal(b1-3)[Fuc(a1-4)]GlcNAc(b1-2)Man(a1-6)]Man(b1-4)GlcNAc(b1-4)[Fuc(a1-6)]GlcNAc
# Procedure, shortened: as §1
# [20] = target: Gal(b1-3)[Fuc(a1-4)]GlcNAc(b1-3)Gal(b1-3)[Fuc(a1-4)]GlcNAc
# Procedure, shortened: as §1
# [21] = target: Gal(b1-3)[Fuc(a1-4)]GlcNAc(b1-3)Gal(b1-4)GlcNAc
# Procedure, shortened: as §1
# [22] = target: Gal(b1-3)[Fuc(a1-4)]GlcNAc(b1-3)Gal(b1-4)[Fuc(a1-3)]GlcNAc
# Procedure, shortened: as §1
# [23] = target: Gal(b1-3)[Fuc(a1-4)]GlcNAc(b1-6)GalNAc
# Procedure, shortened: as §1
# [24] = target: Gal(b1-3)[GlcNAc(b1-6)]GalNAc
# Procedure, shortened: as §1
# [25] = target: Gal(b1-3)[Neu5Ac(a2-6)]GalNAc
# Procedure, shortened: as §1
# [26] = target: Gal(b1-3)[Neu5Ac(a2-6)]GlcNAc(b1-4)Gal(b1-4)Glc
# Procedure, shortened: as §1
# [27] = target: Gal(b1-3)[Neu5Ac(b2-6)]GalNAc
# Procedure, shortened: as §1
# Gal(b1-4)Gal = target: Gal(b1-4)Gal
# Procedure, shortened: as §1
# [28] = target: Gal(b1-4)GalNAc(a1-3)[Fuc(a1-2)]Gal(b1-4)GlcNAc
# Procedure, shortened: as §1
# [29] = target: Gal(b1-4)GalNAc(b1-3)[Fuc(a1-2)]Gal(b1-4)GlcNAc
# Procedure, shortened: as §1
# Gal(b1-4)Glc = target: Gal(b1-4)Glc
# Procedure, shortened: as §1
# Gal(b1-4)Glc6S = target: Gal(b1-4)Glc6S
# Procedure, shortened: as §1
# Gal(b1-4)GlcNAc = target: Gal(b1-4)GlcNAc
# Procedure, shortened: as §1
# [30] = target: Gal(b1-4)GlcNAc(a1-6)Gal(b1-4)GlcNAc
# Procedure, shortened: as §1
# Gal(b1-4)GlcNAc(b1-2)Man = target: Gal(b1-4)GlcNAc(b1-2)Man
# Procedure, shortened: as §1
# [31] = target: Gal(b1-4)GlcNAc(b1-2)Man(a1-3)Man(b1-4)GlcNAc(b1-4)GlcNAc
# Procedure, shortened: as §1
# [32] = target: Gal(b1-4)GlcNAc(b1-2)Man(a1-3)[Gal(b1-4)GlcNAc(b1-2)Man(a1-6)]Man(b1-4)GlcNAc(b1-4)GlcNAc
# Procedure, shortened: as §1
# [33] = target: Gal(b1-4)GlcNAc(b1-2)Man(a1-3)[Gal(b1-4)GlcNAc(b1-2)Man(a1-6)]Man(b1-4)GlcNAc(b1-4)[Fuc(a1-6)]GlcNAc
# Procedure, shortened: as §1
# [34] = target: Gal(b1-4)GlcNAc(b1-2)Man(a1-3)[Gal(b1-4)GlcNAc(b1-2)Man(a1-6)][Gal(b1-4)GlcNAc(b1-4)]Man(b1-4)GlcNAc(b1-4)[Fuc(a1-6)]GlcNAc
# Procedure, shortened: as §1
# [35] = target: Gal(b1-4)GlcNAc(b1-2)Man(a1-3)[Gal(b1-4)GlcNAc(b1-2)Man(a1-6)][GlcNAc(b1-4)]Man(b1-4)GlcNAc(b1-4)[Fuc(a1-6)]GlcNAc
# Procedure, shortened: as §1
# [36] = target: Gal(b1-4)GlcNAc(b1-2)Man(a1-3)[GlcNAc(b1-2)Man(a1-6)]Man(b1-4)GlcNAc(b1-4)GlcNAc
# Procedure, shortened: as §1
# [37] = target: Gal(b1-4)GlcNAc(b1-2)Man(a1-3)[GlcNAc(b1-4)][Gal(b1-4)GlcNAc(b1-2)Man(a1-6)]Man(b1-4)GlcNAc(b1-4)GlcNAc
# Procedure, shortened: as §1
# [38] = target: Gal(b1-4)GlcNAc(b1-2)Man(a1-3)[Man(a1-6)]Man(b1-4)GlcNAc(b1-4)GlcNAc
# Procedure, shortened: as §1
# [39] = target: Gal(b1-4)GlcNAc(b1-2)Man(a1-6)Man(b1-4)GlcNAc(b1-4)GlcNAc
# Procedure, shortened: as §1
binder,measurement,setting,value
B1,glycan array binding signal (z-score),[1],-0.051
same,glycan array binding signal (z-score),[2],0.108
same,glycan array binding signal (z-score),[3],0.155
same,glycan array binding signal (z-score),[4],-0.266
same,glycan array binding signal (z-score),[5],-0.054
same,glycan array binding signal (z-score),[6],-0.043
same,glycan array binding signal (z-score),[7],0.005
same,glycan array binding signal (z-score),[8],0.362
same,glycan array binding signal (z-score),[9],0.426
same,glycan array binding signal (z-score),[10],0.046
same,glycan array binding signal (z-score),[11],0.045
same,glycan array binding signal (z-score),[12],-0.11
same,glycan array binding signal (z-score),[13],-0.237
same,glycan array binding signal (z-score),[14],0.14
same,glycan array binding signal (z-score),[15],-0.092
same,glycan array binding signal (z-score),[16],-0.215
same,glycan array binding signal (z-score),Gal(b1-3)GlcNAc6S,-0.174
same,glycan array binding signal (z-score),[17],-0.21
same,glycan array binding signal (z-score),[18],-0.299
same,glycan array binding signal (z-score),[19],-0.14
same,glycan array binding signal (z-score),[20],-0.297
same,glycan array binding signal (z-score),[21],0.307
same,glycan array binding signal (z-score),[22],-0.338
same,glycan array binding signal (z-score),[23],-0.181
same,glycan array binding signal (z-score),[24],-0.12
same,glycan array binding signal (z-score),[25],-0.243
same,glycan array binding signal (z-score),[26],-0.13
same,glycan array binding signal (z-score),[27],-0.229
same,glycan array binding signal (z-score),Gal(b1-4)Gal,-0.044
same,glycan array binding signal (z-score),[28],-0.048
same,glycan array binding signal (z-score),[29],-0.231
same,glycan array binding signal (z-score),Gal(b1-4)Glc,-0.183
same,glycan array binding signal (z-score),Gal(b1-4)Glc6S,-0.106
same,glycan array binding signal (z-score),Gal(b1-4)GlcNAc,-0.15
same,glycan array binding signal (z-score),[30],0.067
same,glycan array binding signal (z-score),Gal(b1-4)GlcNAc(b1-2)Man,-0.105
same,glycan array binding signal (z-score),[31],-0.114
same,glycan array binding signal (z-score),[32],0.603
same,glycan array binding signal (z-score),[33],0.039
same,glycan array binding signal (z-score),[34],0.858
same,glycan array binding signal (z-score),[35],0.519
same,glycan array binding signal (z-score),[36],-0.142
same,glycan array binding signal (z-score),[37],0.089
same,glycan array binding signal (z-score),[38],-0.079
same,glycan array binding signal (z-score),[39],-0.359
